Laboratory results reported in article PMC4336329 (PLoS ONE, 2015).
The campaign covered roughly 310,000 compounds. About 14,000 (4.5%) showed an effect of 50% or more. The effect is printed as a negative number. Some of the results follow.

Target: human ether-à-go-go-related gene (hERG) potassium channel (human, UniProt Q12809)
Experiment: primary screen, population patch clamp on CHO cells stably expressing hERG
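Also: peak tail current of the secondary pulse compared with the same well before compound.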

human ether-à-go-go-related gene (hERG) potassium channel, sequence (Q12809 whole entry, looked up): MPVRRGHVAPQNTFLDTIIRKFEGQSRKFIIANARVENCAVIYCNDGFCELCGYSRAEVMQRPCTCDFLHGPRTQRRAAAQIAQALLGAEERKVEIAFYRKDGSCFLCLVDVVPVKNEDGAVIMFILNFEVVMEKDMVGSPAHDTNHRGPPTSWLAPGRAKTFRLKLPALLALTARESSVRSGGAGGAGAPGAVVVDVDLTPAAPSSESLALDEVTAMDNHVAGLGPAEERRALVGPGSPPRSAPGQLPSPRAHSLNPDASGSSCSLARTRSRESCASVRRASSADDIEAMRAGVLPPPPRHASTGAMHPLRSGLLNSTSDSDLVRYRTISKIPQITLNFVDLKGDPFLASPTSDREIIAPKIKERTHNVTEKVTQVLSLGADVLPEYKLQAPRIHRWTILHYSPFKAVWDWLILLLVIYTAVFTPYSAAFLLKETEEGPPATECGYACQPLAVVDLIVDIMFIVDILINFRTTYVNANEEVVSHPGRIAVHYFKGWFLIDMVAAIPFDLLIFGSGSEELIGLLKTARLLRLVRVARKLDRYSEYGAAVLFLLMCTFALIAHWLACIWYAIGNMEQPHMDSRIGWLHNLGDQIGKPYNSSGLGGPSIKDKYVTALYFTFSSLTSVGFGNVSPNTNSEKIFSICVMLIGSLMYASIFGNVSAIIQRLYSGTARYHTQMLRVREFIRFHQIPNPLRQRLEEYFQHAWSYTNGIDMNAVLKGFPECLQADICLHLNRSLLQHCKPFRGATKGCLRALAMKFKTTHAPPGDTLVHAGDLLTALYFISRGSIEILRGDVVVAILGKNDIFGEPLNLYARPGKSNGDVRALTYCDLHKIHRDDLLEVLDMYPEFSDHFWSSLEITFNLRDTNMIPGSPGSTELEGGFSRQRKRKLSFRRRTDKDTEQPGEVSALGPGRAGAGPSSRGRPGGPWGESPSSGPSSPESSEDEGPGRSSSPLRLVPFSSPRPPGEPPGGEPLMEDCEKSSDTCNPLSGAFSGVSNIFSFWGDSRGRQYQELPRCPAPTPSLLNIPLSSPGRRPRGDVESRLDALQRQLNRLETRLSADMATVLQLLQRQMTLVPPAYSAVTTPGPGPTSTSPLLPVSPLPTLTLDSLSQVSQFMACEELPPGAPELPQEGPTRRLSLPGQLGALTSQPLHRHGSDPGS

Row | SMILES | hERG current change (%, negative = inhibition) at 10uM [%]
1 | CCc1ccccc1Nc1nc(N)nc(CSc2nnc3ccccn23)n1 | 18.7
2 | CN1C(C(=O)Nc2ccc(OC(F)(F)F)cc2)=CC(c2ccc3c(c2)OCO3)=NS1(=O)=O | 15.2
3 | O=C(O)CCC(=O)CCC(=O)c1ccc(Cl)cc1 | 7.33
4 | COCc1ccc(C(=O)NC2CC(C)(C)Cc3c2cnn3-c2ccc(C)cc2)o1 (stereo not shown) | -39.3
5 | COC(=O)C1CN(C(=O)COc2ccc(C)c(C)c2)c2ccccc2O1 (stereo not shown) | -27.9
6 | O=C(c1cc(-c2ccco2)on1)N1CCc2ccccc2C1 | -3.8
7 | CCN(CC)S(=O)(=O)c1ccc(N2CCCC2)c(NC(=O)CC(C)(C)C)c1 | -2.34
8 | CC1CCc2cccc3c2N1c1cc(C#N)c(C#N)cc1O3 (stereo not shown) | 5.08
9 | O=C(Nc1ccc(S(=O)(=O)Nc2ccccn2)cc1)C(F)(F)F | -1.48
10 | CCc1nc2ccc(C(=O)Nc3ccc(NC(C)=O)cc3)cc2nc1CC | 14.2
11 | S=C(Nc1cccc(Cl)c1)Nc1ccc2c(c1)OCCO2 | 15.7
12 | COCCNC(=O)C1CCCN(S(=O)(=O)c2c(C)noc2/C=C/c2cccs2)C1 (stereo not shown) | -20.7
13 | CC(=O)c1ccc(OC(=O)c2cc3ccccc3oc2=O)cc1 | 12.8
14 | CC(C)C(=O)Nc1nnc(SCC(=O)NC2CC2)s1 | 12.8
15 | O=S(=O)(c1cccs1)N1CN(Cc2ccccc2)c2nc3ccccc3nc21 | -25.8
16 | CCN(CC)C(=O)Cn1cc(S(=O)(=O)CC(=O)Nc2cc(C)on2)c2ccccc21 | -5.7
17 | CN1/C(=C/C(=O)c2cccs2)Sc2ccccc21 | 10.2
18 | O=C(COC(=O)Cc1cccs1)Nc1ccccc1F | -4.79
19 | Cc1nc([N+](=O)[O-])cn1Cc1cccc2ccccc12 | 10.2
20 | Cc1ccn2cc(-c3cccc([N+](=O)[O-])c3)nc2c1 | 2.66
21 | Cc1ccc(C(=O)NCCNc2ccc([N+](=O)[O-])cc2C(F)(F)F)cc1 | -3.5
22 | O=c1c2ccccc2cnn1CCOc1cccc(Br)c1 | 20.5

Row | SMILES | hERG current change (%, negative = inhibition) at 10uM [%]
23 | Cc1cc([N+](=O)[O-])ccc1NCc1cccc([N+](=O)[O-])c1 | -48.1
24 | COc1cc(C(=O)NCC(=O)N/N=C(C)\C=C\c2ccccc2)cc(OC)c1OC | 10.5
25 | CN(C)S(=O)(=O)c1cccc(NC(=O)c2cc3c(=O)n4ccccc4nc3s2)c1 | 11.4
26 | COc1cc2c(cc1Cl)/C(=C\CCN(C)C)c1ccccc1S2.O=S(=O)(O)O | -35.4
27 | O=C(O)c1ccc(O)c(N2C(=O)Nc3ccccc3N2O)c1 | 14.6
28 | CC1CCCN(C(=O)CNS(=O)(=O)c2cccs2)C1 (stereo not shown) | -2.13
29 | CC1CN(C(=O)CCNC(=O)c2ccc(Cl)cc2)CC(C)O1 (stereo not shown) | 7.6
30 | O=S1(=O)N=C(Nc2nncs2)c2ccccc21 | 18.6
31 | CCN(CC(=O)O)S(=O)(=O)c1cc(Cl)ccc1Cl | 10.1
32 | O=C(CCN1CCN(CCO)CC1)Nc1ccccc1.O=C(O)C(=O)O | 13.1
33 | Cc1nnc2sc(-c3cccc4ccccc34)nn12 | -19.9
34 | O=C(NCC(O)CN1CCOCC1)c1ccc([N+](=O)[O-])cc1 (stereo not shown) | -4.31
35 | Cc1ccc(-c2cc(=O)[nH]c3ccccc23)cc1 | -9.82
36 | FC(F)(F)c1cccc(Cn2nnnc2-c2cccc(C(F)(F)F)c2)c1 | -18
37 | CC(C)CNC(=O)c1ccccc1SCC(=O)NC12CC3CC(CC(C3)C1)C2 | -5.62
38 | O=C(NC(Cc1ccccc1)C(=O)O)/C(=C/c1ccccc1)NC(=O)c1cccc(Br)c1 (stereo not shown) | 13.5
39 | CCN(C(=O)COC(=O)c1cc(-c2ccccc2)nc2c1c(C)nn2-c1ccc(C)cc1)C1CCS(=O)(=O)C1 (stereo not shown) | -0.38
40 | CSc1nc2ccc(NC(=O)c3ccc(F)c(F)c3)cc2s1 | 12.2
41 | O=C1c2cccnc2C(O)N1C1CCCCC1 (stereo not shown) | 6.12
42 | CN(C)CCN(C)Cc1c2ccccc2c(CN(C)CCN(C)C)c2ccccc12 | 0.802
43 | COc1ccc(OCC(=O)NNC(=O)c2cccc(O)c2)cc1 | 14.2
44 | COC(=O)C(Cc1ccccc1)NC(=O)c1cccc(S(=O)(=O)N(C)C)c1 (stereo not shown) | 2.5

Row | SMILES | hERG current change (%, negative = inhibition) at 10uM [%]
45 | Cc1cc2nc(N3CCN(C(=O)c4ccco4)CC3)sc2cc1C | 0.152
46 | CN(C(=O)CSc1ncnc2sccc12)c1c(N)n(Cc2ccccc2)c(=O)[nH]c1=O | -8.17
47 | CCN(CC)CCNC(=O)c1c(C)n(-c2ccccc2)c2cc(Br)c(OC)cc12 | -51.5
48 | COc1ccc2nc(NC(=O)CSc3nc(SC)ns3)sc2c1 | 20.3
49 | O=C(CCN1C(=O)C2CC=C(Cl)CC2C1=O)NCc1ccccc1 (stereo not shown) | 0.443
50 | CC1CN(c2ccccc2)NC1=O (stereo not shown) | 8.42
51 | Cc1nn(-c2ccccc2)c2ncc(C(=O)c3cc(Cl)ccc3O)cc12 | -8.66
52 | O=C(CSc1nccc(=O)[nH]1)Nc1cccc(S(=O)(=O)N2CCOCC2)c1 | 4.22
53 | Cc1cc(NC(=O)CSc2nnc(-c3cccnc3)n2C)no1 | 15.6
54 | Cc1cc(C)cc(N2C(=O)/C(=C\c3ccc(N4CCN(C)CC4)o3)C(=O)NC2=S)c1 | -14.8
55 | COc1ccc(NC(=O)CN(C)C(=O)c2cccc(S(=O)(=O)Nc3ccc(F)cc3)c2)cc1 | -22.1
56 | COc1cccc(-c2nc(CS(=O)(=O)CC(=O)NCCc3ccc(OC)cc3OC)c(C)o2)c1 | -13
57 | Cc1cc(C(=O)NCc2ccc(S(N)(=O)=O)cc2)ccc1[N+](=O)[O-] | -8.65
58 | COc1cccc(C2C(C#N)=C(N)N(N(C)C)C3=C2C(=O)CC(C)(C)C3)c1 (stereo not shown) | -5.98
59 | CCN(CC)C(=O)c1cccc(NC(=O)c2cc(C3CC3)nc3c2cnn3C(C)C)c1 | -17.1
60 | Cc1cc(NC(=O)CSc2ccc3c(c2)OCCO3)no1 | -8.22
61 | COc1ccc(NC(=O)CS(=O)(=O)c2cn(CC(=O)N3CCOCC3)c3ccccc23)cc1 | 10.5
62 | COCCCN1CN(S(=O)(=O)c2ccc(Cl)cc2)c2nc3ccccc3nc21 | -32.7
63 | CN1CCN(C(=O)COc2ccc(-c3nc4ccccc4s3)cc2)CC1 | -21.1
64 | COc1ccc(NC(=O)COC(=O)c2cc(C)oc2C)cc1OC | 9.35
65 | COc1ccc(C(=O)c2c[nH]c(C(=O)NCc3cccs3)c2)cc1 | 0.543
66 | Cc1cc(N(CC(=O)O)S(C)(=O)=O)ccc1Br | 15.9

Row | SMILES | hERG current change (%, negative = inhibition) at 10uM [%]
67 | COc1cc2c(cc1OC)CN(CC(=O)Nc1cccc([N+](=O)[O-])c1)CC2 | -31.6
68 | CC(=O)Nc1ccc(S(=O)(=O)NNC2=NS(=O)(=O)c3ccccc32)cc1 | 22
69 | COC(=O)Cc1c(C)c2ccc(OCC(C)=O)c(C)c2oc1=O | 0.128
70 | Cc1nn(CCC#N)c2c1P(=S)(N1CCCC1)OC(c1ccc(F)cc1)=N2 (stereo not shown) | -7.21
71 | CCCOc1ccc(N2C(=O)CC(N3CCC(c4nc5ccccc5o4)CC3)C2=O)cc1 (stereo not shown) | 3.27
72 | Cc1cc(C)c(C#N)c(N2CCN(C(=O)C3COc4ccccc4O3)CC2)n1 (stereo not shown) | -75.4
73 | O=C(OCc1ccc2c(c1)OCO2)c1ccc(S(=O)(=O)N2CCCCC2)cc1 | -2.65
74 | Cc1ccc(NC(=O)N(Cc2cccs2)Cc2cc3cc4c(cc3[nH]c2=O)OCO4)cc1 | 5.97
75 | CCc1ccc(NC(=O)CC2C(=O)N(c3ccc(C)cc3)C(=O)N2CCc2ccncc2)cc1 (stereo not shown) | -55.8
76 | Nc1nonc1C(=O)NCCNc1ccc([N+](=O)[O-])cc1 | -21.9
77 | Nc1ccc2nc(-c3ccccc3)[nH]c2c1 | 6.5
78 | CC1=NN(C(=O)COc2ccc(C)c(C)c2)C(O)(c2ccccc2)C1 (stereo not shown) | 0.55
79 | Cc1cccc(NC(=O)CSc2nnc(CCCCCNC(=O)OC(C)(C)C)o2)c1C | -19.1
80 | Cn1c(=O)n(Cc2ccccc2F)c(=O)c2c1nc1n2CCN1Cc1ccco1 | -5.95
81 | O=C(Nc1ccccc1)C1=C[C@H](c2ccc3c(c2)OCO3)C[C@H](OCCCCO)O1 | -33
82 | O=C(NC1CCCCC1)c1ccc(Br)o1 | 16.3
83 | O=C(c1cc(COc2cccc(C(F)(F)F)c2)on1)N1CCSCC1 | -17
84 | Cc1noc(C)c1CSc1cc(C)c2ccccc2n1 | 2.82
85 | CCn1c(=O)c2cc(C(=O)NCCC(C)C)sc2c2ccccc21 | 17.4
86 | O=C(Nc1cc(C(F)(F)F)ccc1N1CCOCC1)c1cccs1 | 3.61
87 | Cc1ccc(CNc2nnnn2C)cc1 | 9.69
88 | Nc1nc(SCC(=O)Nc2cc(-c3ccccc3)nn2-c2ccccc2)n[nH]1 | 7.5
